{"source": "PubChem BioAssay AID651820", "about": "(National Center for Advancing Translational Sciences (NCATS), 2012)", "note": "Among all 340,000 compounds or so, about 12,000 (3.5%) were called active. This list was built around the results that the source calls inconclusive (neither active nor inactive); the mix of calls is not that of the screen. Calls follow the shape of the dose curve; as a rule, active = well fitted inhibition curve with a large enough effect; inconclusive = small, poorly fitted or top-dose-only effect, or another doubt; inactive = no such curve, though single readings can be large or run the other way. Potencies of inconclusive entries are left out as doubtful fits. Non-standard residues stand in square brackets, D forms with d. Residues, ends and D or L forms follow the SMILES beside them. ξ: configuration not given here. ξLac(3-iPr) = CC(C)CC(O)C(=O)O; NMeV = CN[CH](C(=O)O)C(C)C; NMeA = CN[CH](C)C(=O)O; βAla = NCCC(=O)O"}
{"experiment": "qHTS Assay for Inhibitors of Hepatitis C Virus (HCV); also: potency is read from the fitted curve at half-maximal effect; tags tell the direction and shape of the fitted curve", "conditions": "Huh7.5.1 HCVcc-Cre (HCVcc is cell-culture hepatitis C virus) infection, luciferase reporter, 44 h; series mostly up to 41.8 µM", "summary_of_the_method": "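Luciferase read-out (15 sec integration) after a 15 min room-temperature substrate step quantifies HCVcc-Cre infection. Cells, 1,000 per well, had compound added 4 h post-plating, then virus at ~0.5 moi, and were cultured 44 h.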"}
{"smiles": "COc1cc(/C=C2\\C(=O)ON=C2c2ccccc2)cc(Br)c1O", "Potency": "inactive"}
{"smiles": "c1ccc(NC2=NCCN2CCC2CCCCC2)cc1", "Potency": "inactive"}
{"smiles": "O=C(Nc1ccccc1N1CCCCC1)c1ccc(F)cc1", "Potency": "inconclusive [inhibitor, single point]"}
{"smiles": "COC(=O)CSc1nc2c(c(-c3ccc(C)o3)c1C#N)CCCC2", "Potency": "active: 5.62 µM"}
{"smiles": "CCCCOc1ccc(/C=C/C2=CC(C)(C)NC(=S)N2)cc1OCC", "Potency": "inconclusive [inhibitor, full curve, poor fit]"}
{"smiles": "Cc1[nH]c2ccccc2c1C(=O)CSc1nnc(C2CC2)o1", "Potency": "inconclusive [inhibitor, single point]"}
{"smiles": "CCOC(=O)c1c(NC(=O)CSc2nnnn2C)sc(CC)c1C", "Potency": "inconclusive [inhibitor, full curve]"}
{"smiles": "Cc1ccc(C(=O)Nc2ccc(S(=O)(=O)Nc3ncccn3)cc2)cc1[N+](=O)[O-]", "Potency": "inactive"}
{"smiles": "CN(C)c1ccc(/C=N\\NC(=O)c2csnn2)cc1", "Potency": "inactive"}
{"smiles": "O=C1c2ccc(Br)cc2C(=O)N1c1ccc(Cc2ccncc2)cc1", "Potency": "inconclusive [inhibitor, single point]"}
{"smiles": "S=C1NC[C@H](Cc2ccccc2)N1CCc1cccc2ccccc12", "Potency": "inconclusive [inhibitor, single point]"}
{"smiles": "Cc1ccc(S(=O)(=O)N2CCC(=O)N(CCOCc3cccc(C(F)(F)F)c3)CC2)cc1", "Potency": "inconclusive [inhibitor, single point]"}
{"smiles": "O=C(Nc1ccc2nn(-c3ccccc3)nc2c1)c1ccco1", "Potency": "inconclusive [inhibitor, partial curve]"}
{"smiles": "COc1ccc(Br)cc1CN1CCN(S(=O)(=O)Cc2ccccc2)CC1", "Potency": "inconclusive [inhibitor, partial curve, poor fit]"}
{"smiles": "Cc1cc(C#N)c(SCC(N)=O)nc1-c1ccc(F)cc1", "Potency": "inconclusive [inhibitor, single point]"}
{"smiles": "CCN(C[C@H]1N[C@@](Cc2ccccc2)(C(=O)OC)[C@H]2C(=O)N(Cc3ccccc3)C(=O)[C@@H]12)S(=O)(=O)c1ccc(OC)cc1", "Potency": "inconclusive [inhibitor, full curve]"}
{"smiles": "Cc1cc(C)c(C#N)c(OCC(=O)c2ccc(Br)cc2)n1", "Potency": "inconclusive [inhibitor, single point]"}
{"smiles": "COC(=O)C1=C(C)NC(=S)NC1c1ccc(OCC(=O)N2CC(C)OC(C)C2)c(OC)c1", "note": "(stereo not drawn)", "Potency": "inactive"}
{"smiles": "CCN(CC)S(=O)(=O)c1ccc(N2CCN(CCOc3ccc(OC)cc3)CC2)nc1", "Potency": "inconclusive [inhibitor, partial curve]"}
{"smiles": "COc1cc2c(cc1NC(=O)CSc1nnc(Cc3cccs3)n1C)oc1ccccc12", "Potency": "active: 10 µM"}
{"smiles": "CSc1ccc(/C=N/NC(=O)COc2ccc(Br)cc2Cl)cc1", "Potency": "inconclusive [inhibitor, full curve]"}
{"smiles": "COC(=O)c1ccc(NC(=O)CN2CCN(S(=O)(=O)c3ccc(Br)cc3)CC2)cc1", "Potency": "inconclusive [inhibitor, single point]"}
{"smiles": "O=C1CCC(=O)N1c1ccccc1-c1ccccc1", "Potency": "inactive"}
{"smiles": "COc1ccc(/C(C)=N/Nc2nc3ccccc3n3cnnc23)cc1OC", "Potency": "inconclusive [inhibitor, single point]"}
{"smiles": "CCC(=NCc1ccco1)c1c(O)n(-c2ccccc2)c(=O)[nH]c1=O", "Potency": "inactive"}
{"smiles": "CCOC(=O)C1=C(COC(=O)c2ccc([N+](=O)[O-])s2)NC(=O)NC1C", "note": "(stereo not drawn)", "Potency": "inconclusive [inhibitor, single point]"}
{"smiles": "CCOc1cc(-c2c(C#N)c(N)nc3c2CCCC3C)ccc1O", "note": "(stereo not drawn)", "Potency": "inconclusive [inhibitor, partial curve]"}
{"smiles": "CCC(C)C1NC(=O)C2CCCN2C(=O)C(CC(C)C)OC(=O)CCNC(=O)C(C)N(C)C(=O)C(C(C)C)N(C)C1=O", "note": "(stereo not drawn) (cyclo([ξLac(3-iPr)]PI[NMeV][NMeA][βAla]); configuration not given here)", "Potency": "inconclusive [inhibitor, full curve]"}
{"smiles": "Cc1ccc(CSCC(=O)N2CCOCC2)cc1", "Potency": "inactive"}
{"smiles": "COC(=O)C1C(=O)C2=C(CC1C)NC(C)=C(C(=O)OC1CCCCC1)C2c1ccc(N(C)C)cc1", "note": "(stereo not drawn)", "Potency": "inconclusive [inhibitor, single point]"}
{"smiles": "CN1CCN(C2=C(Cl)C(=O)N(c3cccc(Cl)c3)C2=O)CC1", "Potency": "inconclusive [inhibitor, single point]"}
{"smiles": "O=S(=O)(c1ccc(F)cc1)N1CCN(CC(O)COc2ccccc2F)CC1", "note": "(stereo not drawn)", "Potency": "inactive"}
{"smiles": "CC(C)(C)n1nnnc1C(c1cccnc1)N(Cc1ccccc1)Cc1cccs1", "note": "(stereo not drawn)", "Potency": "inconclusive [inhibitor, single point]"}
{"smiles": "O=C(Nc1ccc(O)c2c(=O)cc(-c3cccc(Cl)c3)oc12)c1ccccc1Cl", "Potency": "inconclusive [inhibitor, partial curve]"}
{"smiles": "Cc1cccc(C(=O)NC(=O)Nc2c(C)cc(C)nc2C)c1", "Potency": "inconclusive [inhibitor, single point]"}
{"smiles": "N#Cc1ccccc1OCC(=O)Nc1cccc(S(=O)(=O)N2CCCCCC2)c1", "Potency": "inconclusive [inhibitor, partial curve]"}
{"smiles": "Cc1ccccc1OCC(=O)NCCCNC(=O)c1ccncc1", "Potency": "inactive"}
{"smiles": "CC(C)CN(Cc1c(O)ccc2c(=O)c(-c3ccccc3)coc12)CC(C)C", "Potency": "inconclusive [inhibitor, single point]"}
{"smiles": "CCCSc1nc2sc3c(c2c(=O)n1CC)CC(C)(C)OC3", "Potency": "inconclusive [inhibitor, partial curve]"}
{"smiles": "CCOc1ccc2nc(NC(=S)N(C)C)sc2c1", "Potency": "inconclusive [inhibitor, single point]"}
{"smiles": "COc1ccccc1N1CCN(C(=O)c2cc(-c3cccc(Cl)c3)on2)CC1", "Potency": "inconclusive [inhibitor, single point]"}
{"smiles": "COC(=O)c1c(-c2cccs2)csc1NC(=O)c1cccnc1", "Potency": "active: 11.2 µM"}
{"smiles": "O=C(CCSc1ccccn1)Nc1ccc(Br)cc1", "Potency": "inactive"}
